The record followed here is ChEMBL document CHEMBL4888484, “Replenishing the malaria drug discovery pipeline: Screening and hit evaluation of the MMV Hit Generation Library 1 (HGL1) against asexual blood stage Plasmodium falciparum ,using a nano luciferase reporter read-out” (2022).

Among all 150,000 compounds or so, about 540 (0.36%) showed an effect of 50% or more. The list shows a part of the results.

This assay has as its system Plasmodium falciparum. The experiment in a line: Primary screen in NF54 nanoGlo assay, in single point, at 2uM, 72h; a lower Z score goes with more inhibition. It counts as functional, Erythrocyte. As to conditions: timepoint 72 hour.
The % Inhibition is the change of the read-out against control, counted positive when it falls. In the case of `CC(C)(C)OC(=O)N1CC2CC1C2NS(=O)(=O)C1(C)CC1` (stereo not given), the “% Inhibition” value is recorded as 6% and the Z score is -1.

`CN1CCN(S(=O)(=O)c2ccc3n[nH]c(=O)n3c2)CC1`: the “% Inhibition” value was -12% and the Z score turned out to be 1.34.

Consider `CCC(C(=O)NC(C)COC)c1ccccc1` (stereo not given), for which the “% Inhibition” value is on record as 0% and the Z score was -0.01.

Take `CN(Cc1ccco1)c1nc(-c2ccncc2)nc2c1CCNCC2`: the “% Inhibition” value is reported as 4% and the Z score is reported as -0.49.

For the molecule `CCn1c(CCc2cccc(NC(=O)c3ccccc3C)c2)nc2ccccc21`, the “% Inhibition” value is -10% and the Z score is 1.19.

Consider `O=C(O)c1cc(C=Cc2ccc3ncccc3c2)ncn1`, for which the “% Inhibition” value is on record as 38% and the Z score was -1.22.

Regarding `Cc1onc(-c2ccccc2Cl)c1C(=O)NC1CCN(Cc2ccccc2)C1C` (stereo not given), the “% Inhibition” value was -4% and the Z score was determined as 0.69.

`Cc1ccc(CN2CCN(Cc3ccncc3)[C@H]3CS(=O)(=O)C[C@H]32)cc1`: the “% Inhibition” value is reported as -15% and the Z score was found to be 1.95.

For `Cc1cc(C)c(CN2CCCN(c3ccc(NC(=O)c4ccco4)cc3)C2=O)c(C)c1`, the “% Inhibition” value is reported as -7% and the Z score stood at 1.42.

Regarding `CC(C)[C@H](NCC(=O)N1CCN(CC(=O)Nc2ccccc2C(F)(F)F)CC1)c1cccs1`, the “% Inhibition” value is reported as -5% and the Z score was found to be 0.98.

Take `COc1cccc2c1CCc1c-2n[nH]c1C(=O)N[C@H](c1nc2ccccc2n1C)C(C)C`: the “% Inhibition” value is 2% and the Z score was -0.24.

For `O=C1NCCN2CCN(Cc3cccn3S(=O)(=O)c3ccccc3)C[C@@H]12`, the “% Inhibition” value is -7% and the Z score came out at 0.65.

For the molecule `Cc1cc(Nc2ccc(C)c(Cl)c2)c2cc(Cl)ccc2n1`, the “% Inhibition” value is -3% and the Z score is listed as 0.52.

For the molecule `CC(C)(C)OC(=O)N1CCC(NC(=O)C2CCCC(=O)N2)C1(C)C` (stereo not given), the “% Inhibition” value is reported as -14% and the Z score worked out at 2.71.

`Cc1nc(NCc2ccc3c(c2)CCO3)cc([C@H]2C[C@@H](O)C2)n1`: the “% Inhibition” value is on record as -9% and the Z score is 1.5.

As for `CC(CC(O)c1ccccc1)NCc1nc2ccccc2n1C` (stereo not given), the “% Inhibition” value is on record as -5% and the Z score is reported as 0.77.

As to `CCOc1ccccc1CNc1nc(C)c(S(N)(=O)=O)s1`, the “% Inhibition” value is -8% and the Z score was 1.41.

In the case of `CCOC1CC(NC(=O)NC(C)CC(O)c2ccco2)C12CCC2` (stereo not given), the “% Inhibition” value is listed as -5% and the Z score worked out at 0.62.

Turning to `O=C(NCCCc1ccccc1)c1cn(CCCc2ccccc2)nn1`, the “% Inhibition” value is reported as 0% and the Z score was 0.04.

Take `O=C(c1cccnc1-c1ccoc1)N1C[C@@H]2CC[C@H]1C2`: the “% Inhibition” value is -17% and the Z score was determined as 3.29.

Take `Cn1c([C@H]2CCCN(Cc3cscn3)C2)nc2ccccc21`: the “% Inhibition” value is listed as -6% and the Z score was determined as 0.81.

For the molecule `CCCN1C(=O)[C@@H]2CCC(=O)N2c2ccc(C(=O)Nc3ccc(OC)cc3)cc21`, the “% Inhibition” value worked out at 10% and the Z score is reported as -1.66.

Take `COc1ccc(CC(=O)Nc2ccc3c(c2)NC(=O)[C@H](C)O3)cc1OC`: the “% Inhibition” value is listed as -10% and the Z score is 1.88.

As for `O=C(O)c1c(F)cccc1-c1cccc2cccnc12`, the “% Inhibition” value turned out to be 19% and the Z score is given as -2.41.

As for `CC(NC(=O)NC(CCO)C(C)(C)C)C1CCC1` (stereo not given), the “% Inhibition” value is recorded as 5% and the Z score is -0.78.

Regarding `COCCc1nc(CCc2cccnc2)n(C2Cc3ccccc3C2)n1`, the “% Inhibition” value is listed as -8% and the Z score amounted to 1.47.

For `CC(C)C(OCC1CCCO1)C(=O)N1CCCC1C1CCCN1C` (stereo not given), the “% Inhibition” value is -11% and the Z score is recorded as 1.6.

For `CCc1nnc(NC(=O)[C@H](C)N(C)Cc2cnc3ccccc3c2)s1`, the “% Inhibition” value is recorded as -6% and the Z score amounted to 0.73.

For `CN(C)[C@H]1CCN(CC(=O)NCCc2noc(C3CCCC3)n2)C1`, the “% Inhibition” value is given as -11% and the Z score is listed as 1.02.

For `O=S(=O)(c1ccc(F)c(Cl)c1)N1CCC[C@H](Oc2ccncn2)C1`, the “% Inhibition” value was determined as 9% and the Z score was -1.29.

As for `Fc1cnc(NC[C@H]2CCN(C3CCCCC3)C2)nc1`, the “% Inhibition” value is 6% and the Z score was -0.78.

Regarding `O=C(CCn1nc(C(=O)N2CCc3ccccc32)ccc1=O)N1CCN(C2CCCCC2)CC1`, the “% Inhibition” value was -1% and the Z score was found to be 0.14.

Consider `CCCCN(C)Cc1nc2nc(C)cc(N(C)C)n2n1`, for which the “% Inhibition” value is -5% and the Z score is recorded as 0.62.

As to `CN(C)Cc1cn(C[C@H]2C[C@@H](NS(=O)(=O)c3ccccc3)[C@H](O)[C@@H]2O)nn1`, the “% Inhibition” value was 0% and the Z score is -0.02.

Consider `CC[C@H](c1ccccc1)c1nnc2n1CCS(=O)(=O)CC2`, for which the “% Inhibition” value is recorded as 0% and the Z score turned out to be 0.02.

For the molecule `CCOC(=O)c1ccc(NC(=O)Cc2c(C(=O)O)c(C)cn2C)cc1`, the “% Inhibition” value is recorded as -8% and the Z score is reported as 1.06.

On to `C=CCNC(=O)c1cc(Br)ccc1F`, for which the “% Inhibition” value came out at 2% and the Z score is -0.27.

On to `O=S(=O)(Nc1ncn(Cc2ccccc2Cl)n1)c1cccs1`, for which the “% Inhibition” value is recorded as -9% and the Z score is 1.25.

As for `O=S(=O)(Nc1cccc2ccccc12)c1cccs1`, the “% Inhibition” value amounted to 35% and the Z score is -3.95.

In the case of `O=C([C@@H]1CCCN1C(=O)c1cc(-c2ccccc2F)n[nH]1)N1CCOCC1`, the “% Inhibition” value is -20% and the Z score is reported as 2.38.

Consider `Cc1[nH]ccc1C(=O)Nc1ccc(Oc2nnn[nH]2)cc1`, for which the “% Inhibition” value was found to be 26% and the Z score is -3.41.

For the molecule `COc1ncccc1NC(=O)N(C1CCC(C)CC1)C1CC1` (stereo not given), the “% Inhibition” value was -2% and the Z score turned out to be 0.35.

Regarding `O=C(CCC(=O)c1ccc2c(c1)OCCCO2)NCc1ccccc1`, the “% Inhibition” value was -7% and the Z score amounted to 1.26.

`Cc1cc(NC(=O)N2CCN(c3nccs3)CC2)sn1`: the “% Inhibition” value is listed as -7% and the Z score was 0.79.

As to `Cc1ccc(C)c(NC(=O)Cn2c(N3CCC(C)CC3)nc(C)cc2=O)c1`, the “% Inhibition” value is reported as -12% and the Z score is given as 1.88.

On to `COc1cc(C)c([C@H](C)NC(=O)CN2CCCc3occc3C2)cc1OC`, for which the “% Inhibition” value is -9% and the Z score stood at 1.6.

Consider `CCCCN(CCO)C(=O)C[C@H](C)c1cccc(F)c1`, for which the “% Inhibition” value was -1% and the Z score was determined as 0.18.

In the case of `CN(CC1(C)CCOCC1)C1CCN(Cc2ccccc2)CC1`, the “% Inhibition” value is 7% and the Z score was -0.62.

As to `CN(Cc1ccc(Br)o1)C(=O)CNC(=O)C(C)(C)C`, the “% Inhibition” value is -2% and the Z score is on record as 0.23.

For the molecule `Brc1cnn(CCN2CCCC2)c1`, the “% Inhibition” value worked out at 1% and the Z score is -0.12.

For the molecule `CCC(C)(C)N1CCN(C(=O)NCc2cnc(OC)c(Cl)c2)CC1`, the “% Inhibition” value is -11% and the Z score worked out at 1.56.

As to `Cc1cc(-c2n[nH]c(=O)n2CCc2ccc(F)cc2)n(C)n1`, the “% Inhibition” value is recorded as -13% and the Z score stood at 2.26.

With `Cc1ccc2snc(C(=O)NC(C)C)c2c1`, the “% Inhibition” value was -12% and the Z score was determined as 2.15.

Regarding `O=C(c1cccs1)N1CCC(C(=O)N(Cc2ccccc2)c2ccccc2)CC1`, the “% Inhibition” value is -6% and the Z score was 1.13.

Turning to `COc1cccc([C@@H]2CCCN(S(=O)(=O)NCc3ccccc3)C2)c1`, the “% Inhibition” value was -3% and the Z score is listed as 0.31.
